Assay results reported in patent publication US20220348632A1 (Novartis, published 2022).
Each block holds one binder with its values, some of them ahead of it.

Legend:
[1] = molecular target: T1, recombinant human MICA*001 ligand (human, UniProt Q29983 24-307, Biotinylated for capture on the SA chip in the bivalent setup, according to our card. The site is not given.); assay: SPR (Biacore T200), monovalent setup: NKG2D-Fc captured on Protein A chip, ligand as analyte
T1 construct: also called hMICA*001
T1 sequence: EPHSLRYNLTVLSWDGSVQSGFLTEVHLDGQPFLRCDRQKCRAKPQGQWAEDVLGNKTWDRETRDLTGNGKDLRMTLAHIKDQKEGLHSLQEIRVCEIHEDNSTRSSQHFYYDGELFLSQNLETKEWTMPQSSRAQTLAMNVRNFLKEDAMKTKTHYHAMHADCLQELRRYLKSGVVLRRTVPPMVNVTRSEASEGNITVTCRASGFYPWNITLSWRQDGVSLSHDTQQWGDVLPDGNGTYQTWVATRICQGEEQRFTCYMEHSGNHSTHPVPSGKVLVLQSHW
Protocol: (§1) A direct binding assay was performed to characterize the binding of the ADCC enhanced and wild-type NKG2D-Fc variants against recombinant human MICA*001 and MICB*001 ligands. The NKG2D-Fc variants were first used as ligand to characterize the binding of each NKG2D dimer to MICA and MICB (monovalent binding setup) and secondly as analyte in order to determine the effect on the binding when having two homodimers (bivalent binding setup).
(§2) For the monovalent binding setup, kinetic binding affinity constants (KD) were measured on protein-A captured NKG2D-Fc variants using recombinant human NKG2D ligands as analyte. Measurements were conducted on a BIAcore® T200 (GE Healthcare, Glattbrugg, Switzerland) at room temperature. The NKG2D-Fc variants were captured on the flow cell of a Protein A research grade sensor chip (GE Healthcare, ref 29127555). All proteins were diluted in 0.01 M HEPES pH 7.4, 0.15 M NaCl, 3 mM EDTA, 0.005% v/v Surfactant P20. To serve as reference, one flow cell was left blank without any captured protein. Binding data were acquired by subsequent injection of analyte dilutions series on the reference and measuring flow cell. Zero concentration samples (running buffer only) were included to allow double referencing during data evaluation. For data evaluation, doubled referenced sensograms were used and dissociation constants (KD) analyzed.

[2] = molecular target: T2, recombinant human MICB*001 ligand (human, UniProt Q29980 23-309, Biotinylated for capture on the SA chip in the bivalent setup, according to our card. The site is not given.); assay: as above
T2 construct: also called hMICB*001
T2 sequence: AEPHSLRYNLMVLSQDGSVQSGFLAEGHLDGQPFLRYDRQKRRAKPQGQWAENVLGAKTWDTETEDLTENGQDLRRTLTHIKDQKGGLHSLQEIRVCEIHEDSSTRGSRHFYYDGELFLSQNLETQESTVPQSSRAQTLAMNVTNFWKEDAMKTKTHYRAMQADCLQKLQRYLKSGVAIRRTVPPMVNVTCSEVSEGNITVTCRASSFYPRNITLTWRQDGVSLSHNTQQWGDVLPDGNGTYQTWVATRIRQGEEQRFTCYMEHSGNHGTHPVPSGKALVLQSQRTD
Protocol: as §1, §2

[3] = molecular target: T1, recombinant human MICA*001 ligand; assay: SPR (Biacore T200), bivalent setup: biotinylated ligand captured on SA chip, NKG2D-Fc as analyte
Protocol: as §1
(§3) For the bivalent binding setup, kinetic binding affinity constants (KD) were measured on streptavidin captured recombinant human NKG2D ligands using NKG2D-Fc variants as analyte. Measurements were conducted on a BIAcore® T200 (GE Healthcare, Glattbrugg, Switzerland) at room temperature. All proteins were diluted in 0.01 M HEPES pH 7.4, 0.15 M NaCl, 3 mM EDTA, 0.005% v/v Surfactant P20. The biotinylated NKG2D ligands were covalently captured on the flow cells of a SA research grade sensor chip (GE Healthcare, ref 29104992) using standard procedure according to the manufacturer's recommendation (GE Healthcare). To serve as reference, one flow cell was blank immobilized. Binding data were acquired by subsequent injection of analyte dilutions series on the reference and measuring flow cell. Zero concentration samples (running buffer only) were included to allow double referencing during data evaluation. For data evaluation, doubled referenced sensograms were used and dissociation constants (KD) analyzed.

[4] = molecular target: T2, recombinant human MICB*001 ligand; assay: as above
Protocol: as §1, §3

[5] = molecular target: T3, human MICA*008 over-expressed on CT26.WT cells (human); assay: cell-based or functional assay
T3 sequence (Q29983 whole entry, looked up): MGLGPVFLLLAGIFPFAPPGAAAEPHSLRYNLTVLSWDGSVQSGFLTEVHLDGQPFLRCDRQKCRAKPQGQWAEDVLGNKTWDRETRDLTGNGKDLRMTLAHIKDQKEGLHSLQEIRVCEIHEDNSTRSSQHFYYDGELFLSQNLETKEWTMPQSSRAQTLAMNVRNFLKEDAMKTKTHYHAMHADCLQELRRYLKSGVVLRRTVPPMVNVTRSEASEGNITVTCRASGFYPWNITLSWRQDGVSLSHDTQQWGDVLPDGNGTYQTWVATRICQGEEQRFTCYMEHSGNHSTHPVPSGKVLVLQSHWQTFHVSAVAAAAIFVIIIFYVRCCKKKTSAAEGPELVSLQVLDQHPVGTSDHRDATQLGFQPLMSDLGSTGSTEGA

[6] = molecular target: human MICB*001 over-expressed on CT26.WT cells (human); assay: cell-based or functional assay
[7] = molecular target: T4, human ULBP1 expressed on cells (human, UniProt Q9BZM6 26-216); assay: cell-based or functional assay
T4 sequence (looked up): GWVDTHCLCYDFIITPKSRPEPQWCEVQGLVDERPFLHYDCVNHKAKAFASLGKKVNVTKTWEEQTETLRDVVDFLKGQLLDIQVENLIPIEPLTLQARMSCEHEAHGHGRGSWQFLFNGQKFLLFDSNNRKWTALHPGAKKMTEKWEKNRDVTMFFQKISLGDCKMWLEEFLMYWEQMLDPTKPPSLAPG

[8] = molecular target: T5, human ULBP2 expressed on cells (human, UniProt Q9BZM5 26-217); assay: cell-based or functional assay
T5 sequence (looked up): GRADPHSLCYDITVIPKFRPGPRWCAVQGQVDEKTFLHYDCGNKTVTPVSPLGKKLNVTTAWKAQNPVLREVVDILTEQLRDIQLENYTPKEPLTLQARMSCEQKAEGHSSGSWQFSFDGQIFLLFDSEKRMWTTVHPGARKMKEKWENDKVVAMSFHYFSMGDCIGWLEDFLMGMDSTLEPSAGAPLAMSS

[9] = molecular target: T6, cynomolgus MICA*08 over-expressed on CT26.WT cells (cynomolgus); assay: cell-based or functional assay
[10] = molecular target: T7, cynomolgus MICB*05 over-expressed on CT26.WT cells (cynomolgus); assay: cell-based or functional assay
[11] = molecular target: T3, human MICA*008 over-expressed on …; assay: cell-based or functional assay; remark: listed apart in the source
[12] = molecular target: human MICB*001 over-expressed on CT26.WT cells (human); assay: cell-based or functional assay; remark: listed apart in the source
[13] = molecular target: T4, human ULBP1 expressed on cells; assay: cell-based or functional assay; remark: listed apart in the source
[14] = molecular target: T5, human ULBP2 expressed on cells; assay: cell-based or functional assay; remark: listed apart in the source
[15] = molecular target: T6, cynomolgus MICA*08 over-expressed on …; assay: cell-based or functional assay; remark: listed apart in the source
[16] = molecular target: T7, cynomolgus MICB*05 over-expressed on …; assay: cell-based or functional assay; remark: listed apart in the source

- Kd [1]: 0.07 µM
- Kd [2]: 0.104 µM
- Kd [3]: 0.00141 µM
- koff [3]: 0.00107 s⁻¹
- kon [3]: 755000 M⁻¹ s⁻¹
- Kd [4]: 0.00105 µM
- koff [4]: 0.00411 s⁻¹
- kon [4]: 3.93e+06 M⁻¹ s⁻¹
B1: HH8-AFUCO (Fc fusion)
chain: NQEVQIPLTESYCGPCPKNWICYKNNCYQFFDESKNWYESQASCMSQNASLLKVYSKEDQDLLKLVKSYHWMGLVHIPTNGSWQWEDGSILSPNLLTIIEMQKGDCALYASSFKGYIENCSTPNTYICMQRTVRSGGGSGGGSNQEVQIPLTESYCGPCPKNWICYKNNCYQFFDESKNWYESQASCMSQNASLLKVYSKEDQDLLKLVKSYHWMGLVHIPTNGSWQWEDGSILSPNLLTIIEMQKGDCALYASSFKGYIENCSTPNTYICMQRTV[human IgG1 Fc left out here]
modifications: afucosylated: IgG1-Fc wt with low content of fucose
notes: it differs only in the glycan (low fucose); also called HH8_afuc with IgG1-Fc wt with low content of fucose

B2: HH2, hNKG2D(aa78-216)-RS(G3S)2-hNKG2D(aa78-216)-hFc1 (Fc fusion)
chain: FLNSLFNQEVQIPLTESYCGPCPKNWICYKNNCYQFFDESKNWYESQASCMSQNASLLKVYSKEDQDLLKLVKSYHWMGLVHIPTNGSWQWEDGSILSPNLLTIIEMQKGDCALYASSFKGYIENCSTPNTYICMQRTVRSGGGSGGGSFLNSLFNQEVQIPLTESYCGPCPKNWICYKNNCYQFFDESKNWYESQASCMSQNASLLKVYSKEDQDLLKLVKSYHWMGLVHIPTNGSWQWEDGSILSPNLLTIIEMQKGDCALYASSFKGYIENCSTPNTYICMQRTV[human IgG1 Fc left out here]
notes: Homodimer
- EC50 (ng/mL), hRGA killing (Human CD16 RGA) [5]: 4.7 ng/mL
- EC50 (ng/mL), hRGA killing (Human CD16 RGA) [6]: 91 ng/mL
- EC50 (ng/mL), hRGA killing (Human CD16 RGA) [7]: 8.3 ng/mL
- EC50 (ng/mL), hRGA killing (Human CD16 RGA) [8]: 15 ng/mL
- EC50 (ng/mL), hRGA killing (Human CD16 RGA) [9]: 7.3 ng/mL
- EC50 (ng/mL), hRGA killing (Human CD16 RGA) [10]: 1350 ng/mL

B3: HH5, hNKG2D(aa78-216)-RS(G3S)2-hNKG2D(aa78-216)-hFc1[S239D, I332E] (Fc fusion)
chain: FLNSLFNQEVQIPLTESYCGPCPKNWICYKNNCYQFFDESKNWYESQASCMSQNASLLKVYSKEDQDLLKLVKSYHWMGLVHIPTNGSWQWEDGSILSPNLLTIIEMQKGDCALYASSFKGYIENCSTPNTYICMQRTVRSGGGSGGGSFLNSLFNQEVQIPLTESYCGPCPKNWICYKNNCYQFFDESKNWYESQASCMSQNASLLKVYSKEDQDLLKLVKSYHWMGLVHIPTNGSWQWEDGSILSPNLLTIIEMQKGDCALYASSFKGYIENCSTPNTYICMQRTV[human IgG1 Fc with changes left out here]
- EC50 (ng/mL), hRGA killing (Human CD16 RGA) [5]: 1 ng/mL
- EC50 (ng/mL), hRGA killing (Human CD16 RGA) [6]: 16 ng/mL
- EC50 (ng/mL), hRGA killing (Human CD16 RGA) [7]: 1.2 ng/mL
- EC50 (ng/mL), hRGA killing (Human CD16 RGA) [8]: 0.9 ng/mL
- EC50 (ng/mL), hRGA killing (Human CD16 RGA) [9]: 0.2 ng/mL
- EC50 (ng/mL), hRGA killing (Human CD16 RGA) [10]: 89 ng/mL

- ADCC EC50 (pM), FcγRIIIa reporter gene assay [11]: 1.33 pM
- ADCC EC50 (pM), FcγRIIIa reporter gene assay [12]: 8.21 pM
- ADCC EC50 (pM), FcγRIIIa reporter gene assay [13]: 2.71 pM
- ADCC EC50 (pM), FcγRIIIa reporter gene assay [14]: 10.5 pM
- ADCC EC50 (pM), FcγRIIIa reporter gene assay [15]: 2.3 pM
- ADCC EC50 (pM), FcγRIIIa reporter gene assay [16]: 1250 pM
- Kd [1]: 0.0775 µM
- Kd [2]: 0.086 µM
- Kd [3]: 0.00082 µM
- koff [3]: 0.000907 s⁻¹
- kon [3]: 1.11e+06 M⁻¹ s⁻¹
- Kd [4]: 0.00053 µM
- koff [4]: 0.00328 s⁻¹
- kon [4]: 6.22e+06 M⁻¹ s⁻¹
B4: HH10, hNKG2D(aa84-216)-RS(G3S)2-hNKG2D(aa84-216)-hFc1[S239D, I332E] (Fc fusion)
chain: NQEVQIPLTESYCGPCPKNWICYKNNCYQFFDESKNWYESQASCMSQNASLLKVYSKEDQDLLKLVKSYHWMGLVHIPTNGSWQWEDGSILSPNLLTIIEMQKGDCALYASSFKGYIENCSTPNTYICMQRTVRSGGGSGGGSNQEVQIPLTESYCGPCPKNWICYKNNCYQFFDESKNWYESQASCMSQNASLLKVYSKEDQDLLKLVKSYHWMGLVHIPTNGSWQWEDGSILSPNLLTIIEMQKGDCALYASSFKGYIENCSTPNTYICMQRTV[human IgG1 Fc with changes left out here]
notes: ADCC-enhanced Fc variant (SDIE); homodimer
- EC50 (ng/mL), hRGA killing (Human CD16 RGA) [5]: 0.2 ng/mL
- EC50 (ng/mL), hRGA killing (Human CD16 RGA) [6]: 9.5 ng/mL
- EC50 (ng/mL), hRGA killing (Human CD16 RGA) [7]: 0.3 ng/mL
- EC50 (ng/mL), hRGA killing (Human CD16 RGA) [8]: 1.2 ng/mL
- EC50 (ng/mL), hRGA killing (Human CD16 RGA) [9]: 0.3 ng/mL
- EC50 (ng/mL), hRGA killing (Human CD16 RGA) [10]: 145 ng/mL
